# Source: the supplement of paper PMC8728848
# This is one part of the list.
# Legend:
# Assay in all cases: glycan array binding signal (z-score within array); higher = stronger binding
# Settings in all cases: glycan notation: IUPAC condensed, linker removed
# [1] = molecular target: Neu5Ac(a2-6)Gal(b1-4)GlcNAc(b1-3)Gal(b1-4)GlcNAc(b1-3)Gal(b1-4)GlcNAc
# Outline: (§1)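 Glycan array binding is given as a within-array Z-score, which can be read as non-binding when negative. The arrays, 3228 of them, came from the Consortium for Functional Glycomics database and were retained only where the protein sequence was available. Z-scores were averaged across arrays of the same protein sequence at different concentrations or buffers and across linkers.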
# [2] = molecular target: Neu5Ac(a2-6)Gal(b1-4)GlcNAc(b1-3)Gal(b1-4)GlcNAc(b1-3)Gal(b1-4)GlcNAc(b1-2)Man(a1-3)[Neu5Ac(a2-6)Gal(b1-4)GlcNAc(b1-3)Gal(b1-4)GlcNAc(b1-3)Gal(b1-4)GlcNAc(b1-2)Man(a1-6)]GalNAc
# Outline: as §1
# [3] = molecular target: Neu5Ac(a2-6)Gal(b1-4)GlcNAc(b1-3)Gal(b1-4)GlcNAc(b1-3)GalNAc
# Outline: as §1
# [4] = molecular target: Neu5Ac(a2-6)Gal(b1-4)GlcNAc(b1-3)Gal(b1-4)GlcNAc(b1-3)[Neu5Ac(a2-6)Gal(b1-4)GlcNAc(b1-3)Gal(b1-4)GlcNAc(b1-6)]GalNAc
# Outline: as §1
# [5] = molecular target: Neu5Ac(a2-6)Gal(b1-4)GlcNAc(b1-3)Gal(b1-4)GlcNAc(b1-6)[Gal(b1-3)]GalNAc
# Outline: as §1
# [6] = molecular target: Neu5Ac(a2-6)Gal(b1-4)GlcNAc(b1-3)Gal(b1-4)[Fuc(a1-3)]GlcNAc(b1-3)Gal(b1-4)[Fuc(a1-3)]GlcNAc
# Outline: as §1
# [7] = molecular target: Neu5Ac(a2-6)Gal(b1-4)GlcNAc(b1-3)GalNAc
# Outline: as §1
# [8] = molecular target: Neu5Ac(a2-6)Gal(b1-4)GlcNAc(b1-3)[Neu5Ac(a2-6)Gal(b1-4)GlcNAc(b1-6)]GalNAc
# Outline: as §1
# [9] = molecular target: Neu5Ac(a2-6)Gal(b1-4)GlcNAc(b1-6)GalNAc
# Outline: as §1
# [10] = molecular target: Neu5Ac(a2-6)Gal(b1-4)GlcNAc(b1-6)[Gal(b1-3)GlcNAc(b1-3)]Gal(b1-4)Glc
# Outline: as §1
# [11] = molecular target: Neu5Ac(a2-6)Gal(b1-4)GlcNAc(b1-6)[Gal(b1-3)]GalNAc
# Outline: as §1
# [12] = molecular target: Neu5Ac(a2-6)Gal(b1-4)GlcNAc6S
# Outline: as §1
# Neu5Ac(a2-6)GalNAc = molecular target: Neu5Ac(a2-6)GalNAc
# Outline: as §1
# [13] = molecular target: Neu5Ac(a2-6)GalNAc(b1-4)GlcNAc
# Outline: as §1
# [14] = molecular target: Neu5Ac(a2-6)GalNAc(b1-4)GlcNAc6S
# Outline: as §1
# [15] = molecular target: Neu5Ac(a2-6)GlcNAc(b1-4)GlcNAc
# Outline: as §1
# [16] = molecular target: Neu5Ac(a2-6)GlcNAc(b1-4)GlcNAc(b1-4)GlcNAc
# Outline: as §1
# Neu5Ac(a2-8)Neu5Ac = molecular target: Neu5Ac(a2-8)Neu5Ac
# Outline: as §1
# [17] = molecular target: Neu5Ac(a2-8)Neu5Ac(a2-3)Gal(b1-3)GalNAc(b1-4)[Neu5Ac(a2-3)]Gal(b1-4)Glc
# Outline: as §1
# [18] = molecular target: Neu5Ac(a2-8)Neu5Ac(a2-3)Gal(b1-3)GalNAc(b1-4)[Neu5Ac(a2-8)Neu5Ac(a2-3)]Gal(b1-4)Glc
# Outline: as §1
# [19] = molecular target: Neu5Ac(a2-8)Neu5Ac(a2-3)Gal(b1-4)Glc
# Outline: as §1
# [20] = molecular target: Neu5Ac(a2-8)Neu5Ac(a2-3)Gal(b1-4)GlcNAc
# Outline: as §1
# [21] = molecular target: Neu5Ac(a2-8)Neu5Ac(a2-3)[Gal(b1-3)GalNAc(b1-4)]Gal(b1-4)Glc
# Outline: as §1
# [22] = molecular target: Neu5Ac(a2-8)Neu5Ac(a2-3)[GalNAc(b1-4)]Gal(b1-4)Glc
# Outline: as §1
# [23] = molecular target: Neu5Ac(a2-8)Neu5Ac(a2-8)Neu5Ac
# Outline: as §1
# [24] = molecular target: Neu5Ac(a2-8)Neu5Ac(a2-8)Neu5Ac(a2-3)Gal(b1-4)Glc
# Outline: as §1
# [25] = molecular target: Neu5Ac(a2-8)Neu5Ac(a2-8)Neu5Ac(a2-3)[Gal(b1-3)GalNAc(b1-4)]Gal(b1-4)Glc
# Outline: as §1
# [26] = molecular target: Neu5Ac(a2-8)Neu5Ac(a2-8)Neu5Ac(a2-3)[GalNAc(b1-4)]Gal(b1-4)Glc
# Outline: as §1
# [27] = molecular target: Neu5Ac(a2-8)Neu5Ac(a2-8)Neu5Ac(a2-8)Neu5Ac(a2-3)[GalNAc(b1-4)]Gal(b1-4)Glc
# Outline: as §1
# [28] = molecular target: Neu5Ac(a2-8)Neu5Gc(a2-3)Gal(b1-4)GlcNAc
# Outline: as §1
# [29] = molecular target: Neu5Ac(b2-6)Gal(b1-4)GlcNAc
# Outline: as §1
# Neu5Ac(b2-6)GalNAc = molecular target: Neu5Ac(b2-6)GalNAc
# Outline: as §1
# [30] = molecular target: Neu5Ac9Ac(a2-3)Gal(b1-3)GlcNAc
# Outline: as §1
# [31] = molecular target: Neu5Ac9Ac(a2-3)Gal(b1-4)GlcNAc
# Outline: as §1
# [32] = molecular target: Neu5Ac9Ac(a2-6)Gal(b1-4)GlcNAc
# Outline: as §1
# [33] = molecular target: Neu5Gc(a2-3)Gal(b1-3)GlcNAc
# Outline: as §1
# [34] = molecular target: Neu5Gc(a2-3)Gal(b1-3)[Fuc(a1-4)]GlcNAc
# Outline: as §1
# Neu5Gc(a2-3)Gal(b1-4)Glc = molecular target: Neu5Gc(a2-3)Gal(b1-4)Glc
# Outline: as §1
# [35] = molecular target: Neu5Gc(a2-3)Gal(b1-4)GlcNAc
# Outline: as §1
# [36] = molecular target: Neu5Gc(a2-3)Gal(b1-4)GlcNAc(b1-3)Gal(b1-4)GlcNAc(b1-2)Man(a1-3)[Neu5Gc(a2-3)Gal(b1-4)GlcNAc(b1-3)Gal(b1-4)GlcNAc(b1-2)Man(a1-6)]Man(b1-4)GlcNAc(b1-4)GlcNAc
# Outline: as §1
# [37] = molecular target: Neu5Gc(a2-3)Gal(b1-4)[Fuc(a1-3)]GlcNAc
# Outline: as §1
# [38] = molecular target: Neu5Gc(a2-6)Gal(b1-4)GlcNAc
# Outline: as §1
# Neu5Gc(a2-6)GalNAc = molecular target: Neu5Gc(a2-6)GalNAc
# Outline: as §1
# [39] = molecular target: Neu5Gc(a2-8)Neu5Ac(a2-3)Gal(b1-4)GlcNAc
# Outline: as §1
# [40] = molecular target: Neu5Gc(a2-8)Neu5Gc(a2-3)Gal(b1-4)GlcNAc
# Outline: as §1
binder,measurement,setting,value
"Sebin2 (Coprinopsis cinerea), A8PE78 (protein) MTTPFYAYCHNVQDDNTWRLGLVFANRSTADEWWRAISEATSSIPITKSITRVTPQYYTHDIRVWNMYNFFVDGNIKSISDKFRGRLFITLEYDRSGRGVSVFPPLHIVDHVSGNWYYIRSKTAPHLFWFYDETRNAIYASKEKRTRFKVSIRNPSPQTPKDAIMINSDDVVIHIKESLYVGVDSYLGHIIPTRAYRTFKFGELEGGAIAGIEVAENAEERCSSTFDGASLYFVGPDSSSPGEPWELV",glycan array binding signal (z-score),[1],-0.168
same,glycan array binding signal (z-score),[2],0.551
same,glycan array binding signal (z-score),[3],-0.608
same,glycan array binding signal (z-score),[4],0.043
same,glycan array binding signal (z-score),[5],0.04
same,glycan array binding signal (z-score),[6],-0.035
same,glycan array binding signal (z-score),[7],-0.32
same,glycan array binding signal (z-score),[8],0.423
same,glycan array binding signal (z-score),[9],0.544
same,glycan array binding signal (z-score),[10],-0.101
same,glycan array binding signal (z-score),[11],0.518
same,glycan array binding signal (z-score),[12],-0.323
same,glycan array binding signal (z-score),Neu5Ac(a2-6)GalNAc,-0.525
same,glycan array binding signal (z-score),[13],-0.487
same,glycan array binding signal (z-score),[14],-0.011
same,glycan array binding signal (z-score),[15],0.189
same,glycan array binding signal (z-score),[16],-0.675
same,glycan array binding signal (z-score),Neu5Ac(a2-8)Neu5Ac,-0.211
same,glycan array binding signal (z-score),[17],0.353
same,glycan array binding signal (z-score),[18],0.26
same,glycan array binding signal (z-score),[19],-0.726
same,glycan array binding signal (z-score),[20],-0.654
same,glycan array binding signal (z-score),[21],-0.099
same,glycan array binding signal (z-score),[22],0.144
same,glycan array binding signal (z-score),[23],0.72
same,glycan array binding signal (z-score),[24],-0.065
same,glycan array binding signal (z-score),[25],-0.094
same,glycan array binding signal (z-score),[26],0.32
same,glycan array binding signal (z-score),[27],0.103
same,glycan array binding signal (z-score),[28],-0.304
same,glycan array binding signal (z-score),[29],-0.437
same,glycan array binding signal (z-score),Neu5Ac(b2-6)GalNAc,-0.313
same,glycan array binding signal (z-score),[30],0.046
same,glycan array binding signal (z-score),[31],-0.32
same,glycan array binding signal (z-score),[32],-0.168
same,glycan array binding signal (z-score),[33],-0.134
same,glycan array binding signal (z-score),[34],-0.018
same,glycan array binding signal (z-score),Neu5Gc(a2-3)Gal(b1-4)Glc,0.418
same,glycan array binding signal (z-score),[35],0.158
same,glycan array binding signal (z-score),[36],0.042
same,glycan array binding signal (z-score),[37],-0.127
same,glycan array binding signal (z-score),[38],0.134
same,glycan array binding signal (z-score),Neu5Gc(a2-6)GalNAc,-0.242
same,glycan array binding signal (z-score),[39],-0.359
same,glycan array binding signal (z-score),[40],-0.571
